Source: PubChem BioAssay AID488969 (Vanderbilt High Throughput Screening Facility, 2010)
Whole data set: some 110,000 compounds, median “z-score” near -0.1, cut for the highest 2% near 2. The list shows a part of the results.

What follows are compounds tested against Metabotropic glutamate receptor 8 (Rattus norvegicus) (UniProt P70579) (assay: mGluR8 Gi/Go-coupled signaling modulation – cell-based, rat, thallium flux, HTS, primary screen (AID 488969)). Conditions: HEK293 rat mGluR8, GIRK (G protein-gated inwardly rectifying potassium channel) thallium flux, FluoZin2; at 10 µM; stronger effect = higher value; submaximal glutamate (EC20) added with thallium.
UniProt P70579, sequence (P70579 whole entry, looked up): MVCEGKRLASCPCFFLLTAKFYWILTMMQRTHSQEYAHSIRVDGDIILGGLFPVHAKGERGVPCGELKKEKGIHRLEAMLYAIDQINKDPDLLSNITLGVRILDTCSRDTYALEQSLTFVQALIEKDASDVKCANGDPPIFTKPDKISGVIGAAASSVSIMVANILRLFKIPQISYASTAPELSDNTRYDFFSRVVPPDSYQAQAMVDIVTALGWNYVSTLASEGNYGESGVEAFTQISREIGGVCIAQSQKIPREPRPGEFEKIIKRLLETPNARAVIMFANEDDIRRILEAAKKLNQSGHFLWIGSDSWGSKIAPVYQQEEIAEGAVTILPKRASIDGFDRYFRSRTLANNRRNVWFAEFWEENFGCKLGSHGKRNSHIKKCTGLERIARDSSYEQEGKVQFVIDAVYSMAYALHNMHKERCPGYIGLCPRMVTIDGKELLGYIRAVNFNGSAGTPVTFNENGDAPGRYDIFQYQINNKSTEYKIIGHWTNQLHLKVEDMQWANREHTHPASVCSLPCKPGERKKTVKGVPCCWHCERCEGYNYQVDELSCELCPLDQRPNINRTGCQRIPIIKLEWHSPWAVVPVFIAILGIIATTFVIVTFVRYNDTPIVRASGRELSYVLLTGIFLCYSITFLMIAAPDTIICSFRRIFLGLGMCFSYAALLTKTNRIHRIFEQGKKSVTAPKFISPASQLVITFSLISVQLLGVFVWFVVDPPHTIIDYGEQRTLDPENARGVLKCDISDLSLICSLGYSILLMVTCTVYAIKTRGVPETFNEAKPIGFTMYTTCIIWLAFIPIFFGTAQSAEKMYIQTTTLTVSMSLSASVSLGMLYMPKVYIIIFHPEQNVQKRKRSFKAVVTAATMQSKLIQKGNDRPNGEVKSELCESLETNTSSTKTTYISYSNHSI

SMILES	z-score
CCOC(=O)CNC(=O)C1(c2ccccc2)CCCC1	0.107
COc1ccc(NC(=O)Cn2ncc(Cl)c(Cl)c2=O)cc1S(=O)(=O)N1CCOCC1	0.141
Nc1c(C(=O)Nc2ccc(S(=O)(=O)N3CCCC3)cc2)sc2nc3cc4c(cc3cc12)CCC4	-0.132
Cc1ccc2nc(-c3ccc(Br)o3)oc(=O)c2c1	-0.0466
Cc1ccc(C(=O)Nc2cc3c(oc2=O)CCCC3=O)cc1	-0.0458
CS(=O)(=O)n1nc(-c2ccc(Cl)cc2)nc1SCc1ccccc1	-0.0463
CCCC(=O)NCc1cc(-c2nn(C)c(=O)c3ccccc23)ccc1C	-0.113
COc1ccc(CC(=O)Nc2ccc(S(=O)(=O)NCC3CCCO3)cc2)cc1 (stereo not drawn)	0.0963
Oc1c(C=Nc2cccc3nsnc23)ccc2ccccc12	-0.703
Cc1ccc(C)c(NC(=O)c2ccc(S(=O)(=O)C(F)F)cc2)c1	-0.276
CCOC(=O)C1CCCN(c2c(Nc3cccc(C)c3)c(=O)c2=O)C1 (stereo not drawn)	-0.269
O=C1C(Cl)=C(NCC2CCCO2)C(=O)N1CCc1ccccc1 (stereo not drawn)	0.0285
CC(=O)c1cc(-c2ccccc2)n(CC(=O)NCc2cccs2)c1C	0.0485
CCN1C(=O)CC(N2CCN(c3ccc(C(=O)c4ccccc4)cc3)CC2)C1=O (stereo not drawn)	-0.153
CCCOC(=O)Nc1nc2ccccc2o1	-0.00547
CCOC(=O)N1CCN(C(=O)CSc2nc3c(cnn3-c3ccccc3)c(=O)[nH]2)CC1	-0.376
O=C1CC(O)(c2ccccc2)C(c2ccccc2)=C1c1ccccc1 (stereo not drawn)	-0.112
CCCCN(CCCC)CCCNC(=O)CC1Oc2ccc(C)cc2NC1=O (stereo not drawn)	1.11
Cc1cc2c(cc1C)C(c1ccccc1Br)CC(=O)N2 (stereo not drawn)	0.617
COc1cc(/C=N/NC(=O)CCn2cnc(-c3ccccc3)c2-c2ccccc2)ccc1O	-0.819
Cc1nn(Cc2ccc(Cl)cc2Cl)c(C)c1NC(=O)NC12CC3CC(CC(C3)C1)C2	-0.166
COc1ccc(CNn2c(-c3cccc(C)c3)nc3ccccc3c2=O)cc1OC	-0.12
Cc1[nH]c2ccccc2c1/C=C/c1nc2ccccc2c(=O)n1-c1ccc([N+](=O)[O-])cc1	-0.603

SMILES	z-score
Cc1ccc(/C=C/C(=O)N2CCN(Cc3ccccc3)CC2)o1	-0.286
NC(=O)C1(N2CCCCC2)CCN(C(=S)Nc2ccc(Cl)cc2)CC1	0.0327
CC(C)c1ccc(Nc2nc(NCc3ccco3)nc(N3CCOCC3)n2)cc1	-0.278
CN1/C(=C/C(=O)C2CCC2)Sc2ccccc21	0.401
CN1C(=O)C(O)(CC(=O)c2ccncc2)c2ccccc21 (stereo not drawn)	-0.00178
Cc1cc(C)n(C(=O)COc2ccc(Cl)cc2Cl)n1	-0.331
COc1ccccc1C(=O)NC(=Nc1nc2ccccc2o1)NC(=O)c1ccccc1OC	-0.544
CC(C)/C=N/NC(=O)c1ccc(Cl)cc1	-0.254
CNC(=O)/C(C#N)=C/c1c(N2CC(C)OC(C)C2)nc2ccccn2c1=O (stereo not drawn)	-0.492
Cc1ccc(S(=O)(=O)NC(=O)c2cc(C)n(CCCN3CCOCC3)c2C)cc1	0.135
COc1ccc(-c2nnc3ccc(SCC(=O)Nc4nc5ccc(C)cc5s4)nn23)cc1OC	-0.172
CCN(CC)C(=O)CC1(c2ccccc2OC)CCOC(C(C)C)C1 (stereo not drawn)	-0.162
Cc1onc(COc2ccccc2O)c1Br	0.0389
COC(=O)c1n[nH]nc1-c1ccccc1	-0.18
COc1ccc(CN/C(C)=C(/C#N)C(N)=O)cc1OC	0.858
O=C(Nc1cccc(Cl)c1)Nc1ccc2c(c1)OCO2	-0.0319
Cc1ccc(-c2csc(N3CCC(C(N)=O)(N4CCCCC4)CC3)n2)cc1	0.000968
COc1ccc(NC(=O)Nc2ncccc2C)cc1	-0.216
CCOc1ccc(NC(=O)CCCN2C(=S)NC(C)(C)CC2C)cc1 (stereo not drawn)	-0.466
C(=N\Nc1ccccc1)/c1ccc(N2CCOCC2)cc1	0.117
CC1=NN(S(=O)(=O)c2ccc(F)cc2)C(=O)c2ccccc2O1	0.439
COc1ccccc1NC(=O)/C(=C/c1cccc([N+](=O)[O-])c1)c1ccccc1	-0.304
COC(=O)Cn1cc(C(=O)c2cccs2)c2ccccc21	-0.534

SMILES	z-score
O=C(Nc1cccc2ccccc12)/C(Cl)=C/c1ccccc1	-0.243
O=C(NCCCN1CCOCC1)C(=O)N/N=C/c1ccccc1	0.000949
O=C(C1COc2ccccc2O1)N1CCCC1 (stereo not drawn)	0.642
O=C(Nc1nnc(SCC(=O)N2CCCc3ccccc32)s1)c1ccccc1	-0.222
CCCCn1c(SCC(N)=O)nnc1-c1ccco1	-0.00653
Cn1c(SCc2c(F)cccc2Cl)nnc1-c1cnccn1	0.554
COC(=O)c1cc2ccsc2n1CC(=O)NCC1CCCO1 (stereo not drawn)	-0.0449
O=C(Cc1ccccc1)NNC(=O)c1cccs1	0.27
Oc1ccc2ccccc2c1CNn1cnnc1	0.00272
Cc1ccc(C(C(=O)NC2CCCC2)N(C(=O)CCC(=O)Nc2cc(C)on2)c2ccccc2)cc1 (stereo not drawn)	-0.462
COC(=O)CN(c1ccccc1OC)S(=O)(=O)c1ccccc1	-0.197
Cc1cn(C(=O)c2ccccc2)c(=S)n1-c1ccc(Cl)cc1	-0.162
COc1cccc(CNC(=O)c2nnn(-c3ccc(OC(F)(F)F)cc3)c2N)c1	0.0253
COc1ccc(-n2nc(C(=O)NCC(=O)N3CCN(C)CC3)c3ccccc3c2=O)cc1OC	-0.00987
Cc1ccc(NNS(=O)(=O)c2ccc(C)cc2)cc1	-0.0783
Cc1ccc(NC(=O)CSc2nc(NS(=O)(=O)c3ccc(C)cc3)cc(=O)[nH]2)cc1	-0.139
CCC(=O)Nc1cc(NC(=O)CSc2nnc(C(C)C)n2CC)ccc1C	0.0357
O=c1c([N+](=O)[O-])cc(C(F)(F)F)cn1Cc1c(Cl)cccc1Cl	0.162
Cn1c(SCC(=O)NCc2ccccc2)nnc1-c1ccc(NC(=O)CCc2ccccc2)cc1	0.00419
O=C(NCCCn1ccnc1)C(=O)NCc1ccccc1	-0.00246
CN(NC(=O)c1ccc(Cl)cc1)c1nc(-c2ccccc2)nnc1C(F)(F)F	-0.162
Oc1ccc(C2Nc3cccc4cccc(c34)N2)c(O)c1	-0.102
O=C(CSc1nnc(Cc2ccccc2)n1Cc1ccco1)NC12CC3CC(CC(C3)C1)C2	0.781

SMILES	z-score
O=C(NCCC1=CCCCC1)C1CCCN(S(=O)(=O)c2ccccc2)C1 (stereo not drawn)	-0.232
CC1(C)CC(=O)C2=C(C1)Oc1nc3ccccc3cc1C2C(C#N)C#N (stereo not drawn)	-0.446
COc1cccc(C(=O)N2CCN(Cc3cc(Br)ccc3OC)CC2)c1	-0.0474
Cc1ccc(NS(=O)(=O)c2cccc(C(=O)N/N=C/c3ccc4c(c3)OCCO4)c2)c(C)c1	-0.361
O=C(O)c1ccc(CSc2nnc(-c3ccco3)o2)cc1	-0.282
CCCCOc1ccc(S(N)(=O)=O)cc1	0.195
CCOC(=O)CC1=C(C(=O)OCC)C(c2ccc(C)o2)C(C#N)=C(N)O1 (stereo not drawn)	0.162
COC(=O)Nc1ccc(OC)c(OC)c1	0.503
CCOCCCNC(=O)c1ccccc1SCC	-0.605
Cc1nnc(SCC(=O)NCc2cccs2)[nH]c1=O	-0.0582
Clc1ccc(-c2noc(CSc3nnc(Cc4cccs4)n3-c3ccccc3)n2)cc1	0.0246
CCN(CC(=O)NCc1cccs1)c1nnnn1-c1ccccc1	0.403
COc1ccc(NC(=O)C(C)Sc2ccccc2)cc1 (stereo not drawn)	-0.199
Cn1nnc(NC(=O)c2ccc3ccccc3c2)n1	-1.31
CCNC(=O)CC1C(=O)N(c2ccccc2)C(=O)N1CCc1ccc(OC)c(OC)c1 (stereo not drawn)	-0.356
O=C(Nc1cccc2ccccc12)OC1C=CS(=O)(=O)C1 (stereo not drawn)	-0.073
COC(=O)c1nc(NC(=O)c2ccccc2)n[nH]1	-0.318
COC(=O)Cc1c(C)c2ccc(OCC(=O)N(C)C)cc2oc1=O	-0.0906
Cc1occc1-c1nnc(SCC(=O)N2CCOCC2)n1CC(C)C	0.565
COc1ccc(S(=O)(=O)NCc2ccco2)cc1-c1nnc2c3ccccc3c(C)nn12	-0.708
CC(NC(=O)c1cc2c(s1)CCCC2)C(C)(C)C (stereo not drawn)	-0.205
Cc1ccc(C(=O)COC(=O)CNC(=O)c2ccc(N3C(=O)c4ccccc4C3=O)cc2)cc1C	0.225
Cc1cc(C)nc(Nc2n[nH]c(Cc3ccccc3)n2)n1	-0.469

SMILES	z-score
Cc1cc(NC(=O)c2ccco2)no1	-0.12
Cc1cc(N2CCc3ccccc32)n2ncnc2n1	-0.0199
C=CC(=O)N1c2ccccc2Sc2ccc(NC(=O)OCC)cc21	-0.00168
O=C(OCC(=O)N1CCc2ccccc2C1)c1ccc(N2CCOCC2)c([N+](=O)[O-])c1	-0.0629
CCOC(=O)Nc1cc(OC)c(OC)cc1Cc1nccc2cc(OC)c(OC)cc12	0.596
c1ccc2c(c1)CCOC2CNCCCN1CCCCC1 (stereo not drawn)	-0.111
Cc1cc(C)nc(NC(=O)C(c2ccccc2)c2ccccc2)n1	-0.0816
CCOC(=O)N1CCC(Nc2c(-c3ccc(C)cc3)c(=O)c2=O)CC1	-0.615
CC(C)c1ccc(CN(C(=O)c2cc3ccccc3oc2=O)C2CCS(=O)(=O)C2)cc1 (stereo not drawn)	-0.335
CCCN(Cc1ccccc1)C(=S)Nc1cccc(C(F)(F)F)c1	-0.985
CC12CC3(C)CC(C)(C1)CC(C(=O)NC(=S)NC(C)(C)C)(C2)C3	0.0601
Cc1cc(C(F)(F)F)n2ncc(-c3ccc(F)cc3)c2n1	-0.121
Cc1nnc(NC(=O)CCC(=O)NCc2cccs2)s1	-0.0957
O=S(=O)(NC1=NCCCCC1)c1cccs1	-0.519
CCOCCCNC(=O)CN1CCN(c2ccc(F)cc2)CC1	0.089
CC(OC(=O)c1ccncc1)C(=O)Nc1cc(S(=O)(=O)N2CCCCC2)ccc1Cl (stereo not drawn)	-0.113
CCCCn1nc2cc(C(=O)NCc3ccccc3)ccc2c1OCC	-0.255
CCOC(=O)c1oc2ccc(S(=O)(=O)n3nc(-c4ccc(C)cc4)cc3N)cc2c1C	-0.468
Cc1ccc(C2OC34CCCCCC3C(C#N)(C(=N)O4)C2(C#N)C#N)cc1 (stereo not drawn)	-0.327
CC(=O)C1=C(O)C(=O)N(CCNCCO)C1c1ccccc1 (stereo not drawn)	0.0969
Cc1cc(NC(=O)CS(=O)(=O)c2cn(C)c3ccccc23)no1	1.39
